{"source": "ChEMBL document CHEMBL4888484", "about": "“Replenishing the malaria drug discovery pipeline: Screening and hit evaluation of the MMV Hit Generation Library 1 (HGL1) against asexual blood stage Plasmodium falciparum ,using a nano luciferase reporter read-out” (2022)", "note": "Out of some 150,000 compounds screened, about 540 (0.36%) showed an effect of 50% or more. The list shows a part of the results."}
{"tested_on": "Plasmodium falciparum", "experiment": "Primary screen in NF54 nanoGlo assay, in single point, at 2uM, 72h; a lower Z score goes with more inhibition", "format": "functional, Erythrocyte", "details": "timepoint 72 hour", "units": {"% Inhibition": "%"}}
{"compound": "O=C(N[C@H]1CCc2nnc(C3CC3)n2CC1)c1cccnc1O", "% Inhibition": -6, "Z score": 0.86}
{"compound": "COc1cccc(CN2CCC3(CC[C@@H]3OC)CC2)c1OC", "% Inhibition": -4, "Z score": 0.76}
{"compound": "Cc1nc(CN(C)C(=O)C(=O)Nc2cc(F)c(F)cc2F)cs1", "% Inhibition": -8, "Z score": 1.48}
{"compound": "CCOC(=O)c1c(C)[nH]c(-c2ccc(F)cc2)c1O", "% Inhibition": 5, "Z score": -0.74}
{"compound": "CC(C)S(=O)(=O)CCCOc1cccc(F)c1C#N", "% Inhibition": -6, "Z score": 0.96}
{"compound": "Cc1ncc2c(n1)CCN(Cc1cc(Cl)c3c(c1)OCCO3)C2", "% Inhibition": -16, "Z score": 2.24}
{"compound": "CC(=O)Oc1c(-c2ccc(NC(=O)C(C)C)cc2)c(-c2ccc(C)cc2)nn1-c1ccc(C)cc1", "% Inhibition": 16, "Z score": -2.88}
{"compound": "COC(=O)[C@H]1CCc2nnc(C(=O)Nc3ccccn3)n2C1", "% Inhibition": -13, "Z score": 1.08}
{"compound": "CN1C(=O)c2cc(NC(=O)COc3ccc(Cl)cc3)ccc2Oc2ccccc21", "% Inhibition": -6, "Z score": 0.63}
{"compound": "O=C(Nc1cccc(Br)c1)C1CCN(c2cc(N3CCCC3)ncn2)CC1", "% Inhibition": 2, "Z score": -0.35}
{"compound": "O=S(=O)(N1CCCCC1)N1CCC(c2nnc3n2CCC3)CC1", "% Inhibition": -1, "Z score": 0.1}
{"compound": "Cc1ccc(-n2nnc(C(=O)O)c2-c2cccnc2)c(F)c1", "% Inhibition": -14, "Z score": 1.52}
{"compound": "CCn1cc(C(=O)N2C[C@@H]3CC[C@H]2CN(C)C3)c(C)n1", "% Inhibition": -9, "Z score": 1.57}
{"compound": "CC1CN(C)CCC1N(C)C(=O)Nc1ccn(CCCC#N)n1", "note": "(stereo not drawn)", "% Inhibition": 4, "Z score": -0.33}
{"compound": "CN(Cc1coc(-c2ccc(S(C)(=O)=O)cc2)n1)C1CCN(c2ncccn2)CC1", "% Inhibition": 6, "Z score": -0.58}
{"compound": "C=C(C)CN1CCN(Cc2cc3ccc(Cl)cc3nc2O)CC1", "% Inhibition": -9, "Z score": 1.14}
{"compound": "c1ccc2oc(-c3nc(C4CC4)n[nH]3)cc2c1", "% Inhibition": -12, "Z score": 1.37}
{"compound": "COc1ccccc1N1CCN([C@H]2CCOC2=O)CC1", "% Inhibition": -4, "Z score": 0.69}
{"compound": "O=C(NC[C@H]1Cc2ccccc2O1)c1ccncc1", "% Inhibition": -10, "Z score": 1.37}
{"compound": "Cc1cc(OC2CCN(C(=O)Cc3cccc4ccccc34)CC2)cc(=O)n1C", "% Inhibition": -11, "Z score": 1.86}
{"compound": "Cc1ccc(C(=O)N2CCCO[C@@H](CN3CCCCC3)C2)cc1O", "% Inhibition": 6, "Z score": -0.81}
{"compound": "COc1ccc(CN(C(=O)c2ccc(OC(C)C)cc2)[C@H]2CCS(=O)(=O)C2)cc1", "% Inhibition": -17, "Z score": 1.54}
{"compound": "O=C(Nc1ccc(F)c(Cl)c1)[C@H](Cc1ccccc1)n1cnnn1", "% Inhibition": 17, "Z score": -2.1}
{"compound": "O=C(CN1CN(c2cccc(F)c2)c2ncccc2S1(=O)=O)NC1CCCCC1", "% Inhibition": -18, "Z score": 1.95}
{"compound": "CCc1[nH]c2ccc(CNC(=O)CN3CC[C@H](N(C)C)C3)cc2c1C", "% Inhibition": -3, "Z score": 0.47}
{"compound": "COc1ccccc1[C@H](C)NC(=O)N1CCN(c2nccs2)CC1", "% Inhibition": 3, "Z score": -0.58}
{"compound": "C=CC[C@@H]1Cc2c(N)cccc2[C@@H](CC=C)N1", "% Inhibition": -7, "Z score": 1.07}
{"compound": "Cc1n[nH]cc1Nc1ncnc2c(C)cccc12", "% Inhibition": -8, "Z score": 0.76}
{"compound": "O=C(NCCN1CCNC1=O)c1cccc(-c2cc(C(F)(F)F)n[nH]2)c1", "% Inhibition": -3, "Z score": 0.42}
{"compound": "O=S(=O)(C1CC1)N1CCCN(Cc2ccc(-c3ccccc3)o2)CC1", "% Inhibition": -14, "Z score": 2.56}
{"compound": "Cc1cc(C)n(-c2ccc(N3CCC(N4CC(N5CCOCC5)C4)CC3)cc2)n1", "% Inhibition": -13, "Z score": 1.85}
{"compound": "Cc1cc(Cl)ccc1NC(=O)CN1CCCNC(=O)[C@@H]1C", "% Inhibition": -6, "Z score": 0.94}
{"compound": "COCC1(C2CCC2)CN(C(=O)NCc2cnc(C)o2)C1", "% Inhibition": 12, "Z score": -1.74}
{"compound": "Cc1ccc(F)cc1-n1c(C2CC2)n[nH]c1=O", "% Inhibition": -14, "Z score": 1.73}
{"compound": "Cc1cccnc1C(F)(F)C(=O)Nc1cccc2c1OCC[C@@H]2O", "% Inhibition": -11, "Z score": 2.09}
{"compound": "Cc1c(Cl)cccc1NC(=O)Cn1cnc2c(C(N)=O)nsc2c1=O", "% Inhibition": -8, "Z score": 1.02}
{"compound": "O=C(NCCC(=O)N1CCCCCC1)N[C@H]1CC12CCCCC2", "% Inhibition": -7, "Z score": 1.21}
{"compound": "O=C([C@@H]1COc2ccccc2C1)N1CCN(S(=O)(=O)c2cccc(F)c2)CC1", "% Inhibition": -13, "Z score": 2.41}
{"compound": "CCOc1ccc(-c2nnc(S)o2)cc1", "% Inhibition": -2, "Z score": 0.31}
{"compound": "CC(C)Oc1ccc(C(=O)Nc2cnc3ccnn3c2)cc1", "% Inhibition": -6, "Z score": 1.2}
{"compound": "CCc1noc(C)c1CN1C(=O)N[C@@](C)(c2cnn(C)c2)C1=O", "% Inhibition": -2, "Z score": 0.26}
{"compound": "O=C(c1ccc(Br)o1)N1CCc2ncncc2C1", "% Inhibition": -14, "Z score": 2.71}
{"compound": "CCC(=O)c1ccc(NC(=O)N[C@H]2CCCCN(Cc3nc(C)no3)C2=O)cc1", "% Inhibition": -7, "Z score": 0.65}
{"compound": "O=c1cccc(-c2nc(C3CCOCC3)nn2-c2nc3ccccc3[nH]2)[nH]1", "% Inhibition": -21, "Z score": 2.3}
{"compound": "Cc1cc(C(=O)N(c2ccccn2)C2CCCC2)nc(-c2ccc(Cl)cc2)n1", "% Inhibition": -12, "Z score": 1.58}
{"compound": "CCNC(=O)N1CCN(c2ccc(-c3noc(C4CCCC4)n3)cc2)CC1", "% Inhibition": -5, "Z score": 0.89}
{"compound": "CCc1nsc(N2CCN[C@H](c3cn[nH]c3)C2)n1", "% Inhibition": -12, "Z score": 1.43}
{"compound": "COc1ccccc1CNC(=O)c1ccc(Cn2c(=O)c3ccccc3n(Cc3ccc(C)cc3)c2=O)cc1", "% Inhibition": -3, "Z score": 0.3}
{"compound": "O=C(Nc1nc(CC(=O)N2CCCCC2)cs1)NC1CCCC1", "% Inhibition": -6, "Z score": 1.16}
{"compound": "CN(CCCS(C)(=O)=O)C(=O)c1ccc(F)c(Cl)c1F", "% Inhibition": -5, "Z score": 0.88}
{"compound": "C[C@H]1Cc2ccccc2N1C(=O)CN1CCS(=O)(=O)C(C)(C)C1", "% Inhibition": 1, "Z score": -0.15}
{"compound": "Cc1[nH]c(C)c(S(=O)(=O)N2CCC(C(=O)Nc3ccc4c(c3)OCCO4)CC2)c1C(=O)N1CCCC1", "% Inhibition": -13, "Z score": 1.29}
{"compound": "CCn1cc(C(=O)NC[C@H]2COC3(CCC(C)CC3)O2)cn1", "note": "(stereo partly drawn)", "% Inhibition": -8, "Z score": 0.75}
{"compound": "CCn1nc(C)c(CN/C(=N\\c2ccc3c(c2)OCCO3)NC(=O)c2ccc(C)c(F)c2)c1C", "% Inhibition": 3, "Z score": -0.43}
